# Experimental data published in PubChem BioAssay (Tox21).
# Active and inactive are the calls of the source. Where a call stands in place of a potency, no number is given. Unless noted, calls come from the whole dose curve; as a rule, active = well fitted curve in the direction sought with a large enough effect in the repeat runs; inconclusive = weak or mixed curves; inactive = no such curve, though single readings can be large; an effect the other way counts as inactive or inconclusive.
# Assays:
# [1] = target: Glucocorticoid receptor (Homo sapiens) (UniProt P04150); assay: qHTS assay to identify small molecule antagonists of the glucocorticoid receptor (GR) signaling pathway (AID 720692; active = well fitted inhibition curve with a large enough effect in the signal ratio in the repeat runs, not every such curve was filed as active; inconclusive = weak or mixed curves, or effect the other way; inactive = no such curve, though single readings can be large or run the other way; the % refers to the signal ratio); details: GR-bla HeLa, beta-lactamase FRET ratio, dexamethasone-stimulated, 18 h; activity change, negative = inhibition: at 58.5 µM (top of the series) unless noted
# Sequence of UniProt P04150 (P04150 whole entry, looked up): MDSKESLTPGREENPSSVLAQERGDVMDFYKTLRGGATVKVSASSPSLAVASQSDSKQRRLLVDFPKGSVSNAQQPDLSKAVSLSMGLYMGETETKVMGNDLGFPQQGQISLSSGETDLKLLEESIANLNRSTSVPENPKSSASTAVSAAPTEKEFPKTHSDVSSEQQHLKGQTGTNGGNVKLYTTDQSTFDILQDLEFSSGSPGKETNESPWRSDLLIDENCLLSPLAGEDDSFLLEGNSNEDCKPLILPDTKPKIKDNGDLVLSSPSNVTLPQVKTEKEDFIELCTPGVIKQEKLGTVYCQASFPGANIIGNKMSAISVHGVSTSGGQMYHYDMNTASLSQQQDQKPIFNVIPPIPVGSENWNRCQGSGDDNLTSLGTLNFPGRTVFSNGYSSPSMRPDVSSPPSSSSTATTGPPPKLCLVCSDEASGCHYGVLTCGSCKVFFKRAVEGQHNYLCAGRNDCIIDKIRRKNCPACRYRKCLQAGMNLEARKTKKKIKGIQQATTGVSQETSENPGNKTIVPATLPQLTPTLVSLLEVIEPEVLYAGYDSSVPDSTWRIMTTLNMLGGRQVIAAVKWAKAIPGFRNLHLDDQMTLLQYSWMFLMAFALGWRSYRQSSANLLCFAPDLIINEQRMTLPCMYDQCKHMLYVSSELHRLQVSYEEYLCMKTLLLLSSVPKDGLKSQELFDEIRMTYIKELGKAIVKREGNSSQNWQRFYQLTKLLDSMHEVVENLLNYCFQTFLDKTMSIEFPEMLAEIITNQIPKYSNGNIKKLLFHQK
# Outline: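 GR-bla HeLa cells (beta-lactamase reporter under glucocorticoid response element) were pre-plated 4 h at 37 C, treated with compounds plus 5 nM dexamethasone (final) for 18 h, then read by LiveBLAzer B/G FRET fluorescence after 2 h.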
# [2] = qHTS assay for identifying genotoxic compounds that show differential cytotoxicity against isogenic chicken DT40 cell lines with known DNA damage response pathways - Rev3 mutant cell line (AID 743014); details: chicken DT40 Rev3-/- viability, CellTiter-Glo, 40 h; activity, negative = cytotoxicity: at 68.4 µM (top of the series); note: potency is the fitted concentration of half-maximal effect; nearly all actives have a fitted effect of over 55% in size
# [3] = qHTS assay to identify small molecule antagonists of the thyroid receptor (TR) signaling pathway - cell viability counter screen (AID 743064); details: GH3.TRE-Luc viability, CellTiter-Fluor, 24 h; activity change, negative = cytotoxic: at 70.3 µM (top of the series) unless noted; note: potency is the fitted concentration of half-maximal effect; nearly all actives have a fitted effect of over 50% in size
# Outline: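 Fluorescence from CellTiter-Fluor, added after 23.5 h exposure at 37 °C, reported viability of GH3.TRE-Luc cells co-treated with compound and 1 nM T3. Measured in the same wells as the luciferase TR readout.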
# [4] = qHTS assay for identifying genotoxic compounds that show differential cytotoxicity against isogenic chicken DT40 cell lines with known DNA damage response pathways - wild type cell line (AID 743012); details: DT40 wild type chicken cells viability, CellTiter-Glo, 40 h; activity change, negative = cytotoxicity: at 68.4 µM (top of the series) unless noted; note: nearly all actives have a fitted effect of over 60% in size; note: potency is the fitted concentration of half-maximal effect
# Outline: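 Parental DNA repair-proficient DT40 cells, 300 per well, were pre-incubated ~0.5 h at 37 C/5% CO2, pin-dosed with compounds in DMSO, then incubated 40 h. Viability was read as CellTiter-Glo luminescence after 30 min at room temperature.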
# [5] = qHTS assay to identify small molecule antagonists of the androgen receptor (AR) signaling pathway - cell viability counter screen (AID 743033; note: potency is the fitted concentration of half-maximal effect; nearly all actives have a fitted effect of over 45% in size)
# [6] = qHTS assay to identify small molecule antagonists of the androgen receptor (AR) signaling pathway using the MDA cell line - cell viability counter screen (AID 743041; note: nearly all actives have a fitted effect of over 45% in size); details: MDA-kb2 viability, CellTiter-Fluor, 16 h, cells co-treated with R1881 androgen agonist; viability change, negative = cytotoxic: at 70.3 µM (top of the series)
# Outline: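 Cells were plated at 3,000 per well and left 5 h. Compounds in DMSO were then pinned in, followed by R1881. After 16 h at 37C, CellTiter-Fluor fluorescence gave viability.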
# [7] = target: Estrogen receptor (Homo sapiens) (UniProt P03372); assay: qHTS assay to identify small molecule antagonists of the estrogen receptor alpha (ER-alpha) signaling pathway (AID 743069; active = well fitted curve in the direction sought with a large enough effect in the signal ratio in the repeat runs, not every such curve was filed as active; inconclusive = weak or mixed curves, or effect the other way; inactive = no such curve, though single readings can be large or run the other way; the % refers to the signal ratio; note: potency is the fitted concentration of half-maximal effect); details: HEK293 ER-alpha-UAS-bla, beta-lactamase ratio, antagonist mode; activity, negative = inhibition: at 69.4 µM (top of the series) unless noted
# Sequence of UniProt P03372 (P03372 whole entry, looked up): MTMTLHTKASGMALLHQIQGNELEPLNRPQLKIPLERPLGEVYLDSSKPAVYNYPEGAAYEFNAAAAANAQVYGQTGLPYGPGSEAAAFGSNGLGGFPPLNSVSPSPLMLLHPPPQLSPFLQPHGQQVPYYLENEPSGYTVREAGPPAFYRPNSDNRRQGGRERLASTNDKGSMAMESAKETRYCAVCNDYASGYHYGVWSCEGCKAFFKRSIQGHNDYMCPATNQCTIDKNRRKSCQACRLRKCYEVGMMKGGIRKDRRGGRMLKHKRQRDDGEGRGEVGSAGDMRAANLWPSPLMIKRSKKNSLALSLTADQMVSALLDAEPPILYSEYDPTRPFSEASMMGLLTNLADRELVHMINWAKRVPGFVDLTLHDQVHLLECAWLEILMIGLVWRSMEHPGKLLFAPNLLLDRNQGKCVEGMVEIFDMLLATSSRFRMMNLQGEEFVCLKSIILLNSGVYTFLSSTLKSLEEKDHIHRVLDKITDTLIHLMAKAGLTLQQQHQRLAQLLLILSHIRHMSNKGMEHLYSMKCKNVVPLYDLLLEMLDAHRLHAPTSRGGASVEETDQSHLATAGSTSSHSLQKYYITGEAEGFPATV
# Outline: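 ER-alpha-UAS-bla GripTite HEK293 line; 2% charcoal-stripped FBS overnight; plated, 4 hr 37C/5% CO2; cpd in DMSO + 17beta-estradiol, 18 hr 37C; LiveBLAzer B/G FRET substrate 2 hr RT; fluorescence intensity.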
# [8] = target: Estrogen receptor (Homo sapiens) (UniProt P03372); assay: qHTS assay to identify small molecule agonists of the estrogen receptor alpha (ER-alpha) signaling pathway (AID 743075; calls by dose curve; note: potency is the fitted concentration of half-maximal effect); details: HEK293 ER-alpha-UAS-bla, beta-lactamase FRET ratio, 18 h; activation: at 70.1 µM (top of the series) unless noted
# [9] = target: Estrogen receptor (Homo sapiens) (UniProt P03372); assay: qHTS assay to identify small molecule agonists of the estrogen receptor alpha (ER-alpha) signaling pathway using the BG1 cell line (AID 743079); details: BG1Luc4E2 cells, ERE-luciferase agonist, 22 h; activation: at 70.3 µM (top of the series) unless noted; note: potency is the fitted concentration of half-maximal effect; nearly all actives have a fitted effect of over 20% in size
# [10] = target: Aryl hydrocarbon receptor (Homo sapiens) (UniProt P35869); assay: qHTS assay to identify small molecule that activate the aryl hydrocarbon receptor (AhR) signaling pathway (AID 743085); note: nearly all actives have a fitted effect of over 15% in size; note: potency is the fitted concentration of half-maximal effect;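 for activation: HG2L7.5c1 human HepG2 liver cells with stably integrated DRE-driven firefly reporter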
# Sequence of UniProt P35869 (P35869 whole entry, looked up): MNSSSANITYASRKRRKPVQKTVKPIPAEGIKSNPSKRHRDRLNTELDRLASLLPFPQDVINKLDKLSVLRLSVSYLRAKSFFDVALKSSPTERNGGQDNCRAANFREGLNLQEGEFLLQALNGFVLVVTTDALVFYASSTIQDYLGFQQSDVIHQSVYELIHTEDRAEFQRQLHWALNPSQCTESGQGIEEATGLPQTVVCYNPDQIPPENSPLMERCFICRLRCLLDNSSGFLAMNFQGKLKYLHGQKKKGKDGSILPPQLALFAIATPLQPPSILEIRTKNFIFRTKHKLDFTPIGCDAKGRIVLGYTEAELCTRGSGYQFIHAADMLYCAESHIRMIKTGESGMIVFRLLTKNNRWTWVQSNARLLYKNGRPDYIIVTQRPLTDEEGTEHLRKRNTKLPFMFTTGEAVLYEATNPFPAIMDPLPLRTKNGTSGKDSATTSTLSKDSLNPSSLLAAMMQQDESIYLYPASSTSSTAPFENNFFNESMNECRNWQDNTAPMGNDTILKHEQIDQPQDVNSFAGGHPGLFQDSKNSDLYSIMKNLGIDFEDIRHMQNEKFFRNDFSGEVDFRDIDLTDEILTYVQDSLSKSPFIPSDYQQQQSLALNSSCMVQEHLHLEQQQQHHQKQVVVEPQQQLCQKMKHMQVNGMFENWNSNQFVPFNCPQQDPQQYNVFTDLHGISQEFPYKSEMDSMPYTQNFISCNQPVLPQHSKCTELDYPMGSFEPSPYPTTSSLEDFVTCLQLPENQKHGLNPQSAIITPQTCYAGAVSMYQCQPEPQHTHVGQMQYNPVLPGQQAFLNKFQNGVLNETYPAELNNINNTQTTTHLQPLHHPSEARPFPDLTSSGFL
# Outline: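 Cell line HG2L7.5c1 (human hepatoma, 20× DRE-luc). Plated, 5 h 37C, compound/DMSO added, 24 h 37C. CellTiter-Fluor 30 min 37C → fluorescence; then ONE-Glo 30 min RT → luminescence.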
# [11] = qHTS assay to identify small molecule antagonists of the estrogen receptor alpha (ER-alpha) signaling pathway - cell viability counter screen (AID 743074; calls by dose curve;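 note: HEK293 cells carrying ER-alpha-UAS-bla reporter stimulated with 17beta-estradiol; nearly all actives have a fitted effect of over 45% in size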; note: potency is the fitted concentration of half-maximal effect)
# [12] = qHTS assay to identify small molecule antagonists of the glucocorticoid receptor (GR) signaling pathway - cell viability counter screen (AID 720693); details: GR-bla HeLa viability, CellTiter-Glo luminescence, 18 h, with 5 nM dexamethasone present; viability change, negative = cytotoxic: at 58.5 µM (top of the series) unless noted; note: nearly all actives have a fitted effect of over 55% in size
# [13] = qHTS assay for identifying genotoxic compounds that show differential cytotoxicity against isogenic chicken DT40 cell lines with known DNA damage response pathways - Rad54/Ku70 mutant cell line (AID 743015); details: DT40 Rad54/Ku70 mutant viability, CellTiter-Glo, 40 h; activity change, negative = cytotoxicity: at 66.8 µM (top of the series); note: potency is the fitted concentration of half-maximal effect; nearly all actives have a fitted effect of over 60% in size
# [14] = target: Androgen receptor (Homo sapiens) (UniProt P10275); assay: qHTS assay to identify small molecule antagonists of the androgen receptor (AR) signaling pathway (AID 743035; active = well fitted inhibition curve with a large enough effect in the signal ratio in the repeat runs, not every such curve was filed as active; inconclusive = weak or mixed curves, or effect the other way; inactive = no such curve, though single readings can be large or run the other way; the % refers to the signal ratio); details: HEK293 AR-UAS-bla, R1881-stimulated, beta-lactamase FRET, 16 h; activity change, negative = inhibition: at 58.5 µM (top of the series) unless noted
# Sequence of UniProt P10275 (P10275 whole entry, looked up): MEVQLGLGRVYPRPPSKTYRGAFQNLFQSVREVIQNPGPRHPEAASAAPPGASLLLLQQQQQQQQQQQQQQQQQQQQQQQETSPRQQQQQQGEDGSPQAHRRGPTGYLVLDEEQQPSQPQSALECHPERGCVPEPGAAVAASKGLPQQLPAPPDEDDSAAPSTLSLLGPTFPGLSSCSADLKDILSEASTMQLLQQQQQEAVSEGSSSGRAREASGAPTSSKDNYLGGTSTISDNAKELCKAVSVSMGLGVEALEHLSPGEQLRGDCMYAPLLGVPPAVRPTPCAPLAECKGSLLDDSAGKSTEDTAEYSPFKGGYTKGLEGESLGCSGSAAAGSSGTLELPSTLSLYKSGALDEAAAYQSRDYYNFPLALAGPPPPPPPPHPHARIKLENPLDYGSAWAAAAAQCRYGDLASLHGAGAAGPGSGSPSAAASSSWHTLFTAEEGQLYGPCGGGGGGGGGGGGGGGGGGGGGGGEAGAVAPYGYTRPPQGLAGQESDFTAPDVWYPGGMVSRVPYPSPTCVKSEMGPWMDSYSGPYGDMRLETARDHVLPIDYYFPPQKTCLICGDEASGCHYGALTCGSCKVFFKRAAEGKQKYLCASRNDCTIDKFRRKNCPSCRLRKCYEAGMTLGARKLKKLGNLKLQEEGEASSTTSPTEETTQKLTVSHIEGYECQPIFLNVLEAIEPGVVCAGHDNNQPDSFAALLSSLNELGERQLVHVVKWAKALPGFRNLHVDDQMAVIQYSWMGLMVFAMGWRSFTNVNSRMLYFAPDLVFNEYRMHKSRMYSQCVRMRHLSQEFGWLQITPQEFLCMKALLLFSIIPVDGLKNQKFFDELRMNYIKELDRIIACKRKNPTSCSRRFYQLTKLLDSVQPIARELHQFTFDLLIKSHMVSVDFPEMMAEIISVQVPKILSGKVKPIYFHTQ
# Outline: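 HEK293 cells stably carrying a UAS-driven beta-lactamase reporter (AR-UAS-bla GripTite) were plated for 4 h at 37C, then given compound and the agonist R1881 and incubated 16 h. Reporter activity was read by LiveBLAzer B/G FRET fluorescence after 2 h at room temperature.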
# [15] = qHTS assay to identify small molecule antagonists of the thyroid receptor (TR) signaling pathway (AID 743065); note: potency is the fitted concentration of half-maximal effect; nearly all actives have a fitted effect of over 55% in size
# Outline: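 Antagonism measured as loss of luciferase signal in GH3 cells stably carrying a TRE-luciferase reporter, co-treated with compound and T3 (1 nM final) for 23.5 h at 37 C. Viability was read in the same well by CellTiter-Fluor.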
# [16] = target: Androgen receptor (Homo sapiens) (UniProt P10275); assay: qHTS assay to identify small molecule agonists of the androgen receptor (AR) signaling pathway (AID 743036; active = well fitted activation curve with a large enough effect in the signal ratio in the repeat runs, with a control signal flat, not every such curve was filed as active; inconclusive = weak or mixed curves, or effect the other way; inactive = no such curve, though single readings can be large or run the other way; the % refers to the signal ratio; note: potency is the fitted concentration of half-maximal effect); details: HEK293 AR-UAS-bla GripTite, beta-lactamase FRET ratio, 16 h; activation: at 62.4 µM (top of the series) unless noted
# Outline: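 Fluorescence from a beta-lactamase FRET substrate served as read-out in AR-UAS-bla GripTite HEK293 cells. Cells were treated with DMSO-dissolved compounds for 16 h at 37C, then with LiveBLAzer B/G substrate for 2 h at room temperature.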
# [17] = qHTS assay to identify small molecule antagonists of the estrogen receptor alpha (ER-alpha) signaling pathway using the BG1 cell line (AID 743080; calls by dose curve;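 note: BG1 cells stimulated with 17beta-estradiol alongside compound; potency is the fitted concentration of half-maximal effect; nearly all actives have a fitted effect of over 25% in size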); details: BG1Luc4E2 ERE-luciferase antagonist mode, luminescence; activity change, negative = inhibition: at 70.3 µM (top of the series) unless noted
# Outline: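 BG1-Luc-4E2 cells (endogenous full-length ER-alpha, stable 4×ERE-luciferase) were starved 5 days in phenol-red-free medium with 10% charcoal-stripped FBS, plated 24 h, then given compound plus 17beta-estradiol for 21.5 h at 37 C; ONE-Glo luminescence read after 30 min.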
# [18] = tested on: thyroid hormone receptor (rat, GH3 cells); assay: qHTS assay to identify small molecule agonists of the thyroid receptor (TR) signaling pathway (AID 743066; calls by dose curve; note: potency is the fitted concentration of half-maximal effect); details: GH3.TRE-Luc cells, TR agonist luciferase, 24 h; activation: at 83.9 µM (top of the series) unless noted
# [19] = qHTS assay to identify small molecule antagonists of the estrogen receptor alpha (ER-alpha) signaling pathway using the BG1 cell line - cell viability counter screen (AID 743081); details: BG1Luc4E2 viability, CellTiter-Fluor, 22 h; activity change, negative = cytotoxicity: at 70.3 µM (top of the series);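 note: compound given together with 17beta-estradiol as the ER stimulus; nearly all actives have a fitted effect of over 45% in size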
# [20] = target: Peroxisome proliferator-activated receptor gamma (Homo sapiens) (UniProt P37231); assay: qHTS assay to identify small molecule agonists of the peroxisome proliferator-activated receptor gamma (PPARg) signaling pathway (AID 743094; active = well fitted activation curve with a large enough effect in the signal ratio in the repeat runs, not every such curve was filed as active; inconclusive = weak or mixed curves, or effect the other way; inactive = no such curve, though single readings can be large or run the other way; the % refers to the signal ratio); details: HEK293H PPARg-UAS-bla, beta-lactamase FRET ratio, 17 h; activation: at 57 µM (top of the series) unless noted
# Sequence of UniProt P37231 (P37231 whole entry, looked up): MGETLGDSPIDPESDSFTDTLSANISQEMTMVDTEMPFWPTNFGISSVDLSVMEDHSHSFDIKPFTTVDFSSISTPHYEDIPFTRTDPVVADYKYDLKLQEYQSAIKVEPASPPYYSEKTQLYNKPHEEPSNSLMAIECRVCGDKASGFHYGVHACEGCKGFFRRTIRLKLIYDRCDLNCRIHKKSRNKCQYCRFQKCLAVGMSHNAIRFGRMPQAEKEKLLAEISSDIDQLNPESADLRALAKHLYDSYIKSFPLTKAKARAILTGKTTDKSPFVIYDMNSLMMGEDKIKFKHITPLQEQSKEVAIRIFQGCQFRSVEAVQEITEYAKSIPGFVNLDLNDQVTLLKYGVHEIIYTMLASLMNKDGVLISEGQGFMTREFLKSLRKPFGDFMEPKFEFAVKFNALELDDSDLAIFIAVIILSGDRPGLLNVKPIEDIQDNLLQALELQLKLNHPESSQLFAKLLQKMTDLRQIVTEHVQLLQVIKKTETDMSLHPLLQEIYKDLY
# Outline: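 GeneBLAzer PPARg UAS-bla HEK293H cells carrying a stably integrated beta-lactamase reporter were pre-incubated 5 h at 37C, then exposed to compounds in DMSO for 17 h at 37C; LiveBLAzer B/G FRET substrate was added for 1 h at room temperature and fluorescence read.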
# [21] = qHTS assay to identify small molecule that activate the aryl hydrocarbon receptor (AhR) signaling pathway - cell viability counter screen (AID 743086)
# Outline: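 Cytotoxicity counter screen: CellTiter-Fluor signal (30 min, 37 C) in 4000 HepG2 cells/well carrying the DRE-luciferase reporter, following 24 h compound exposure at 37 C.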
# Tags give direction and shape of the fitted curve or compound fluorescence and quenching.
smiles,measurement,setting,value
CC1(C)[C@H](C=C(Cl)Cl)[C@H]1C(=O)OCc1c(F)c(F)cc(F)c1F,Potency,[1],inactive
same,Potency,[2],"inconclusive [rising, partial curve, poor fit]"
same,Potency,[3],"inconclusive [cytotoxic, single point]"
CC(C)C[C@H](CN)CC(=O)O,Potency,[4],inactive
same,Potency,[5],"inconclusive [cytotoxic, full curve, poor fit]"
same,Potency,[6],inactive
same,Potency,[7],inactive
same,Potency,[8],inactive
same,Potency,[9],active: 13.3 µM
same,Potency,[10],inactive
CN1[C@H]2CC[C@@H]1[C@@H](C(=O)O)[C@@H](OC(=O)c1ccccc1)C2,Potency,[11],"inconclusive [rising, single point]"
c1cc2c(c(NC3=NCCN3)c1)CCCC2,Potency,[12],inactive
same,Potency,[4],"inconclusive [cytotoxic, partial curve]"
same,Potency,[2],"inconclusive [cytotoxic, partial curve, poor fit]"
same,Potency,[13],inconclusive [cytotoxic]
same,Potency,[14],inactive
same,Potency,[3],"inconclusive [cytotoxic, single point]"
same,Potency,[15],"inconclusive [inhibitor, partial curve, poor fit]"
same,Potency,[10],"inconclusive [activator, partial curve]"
C[C@]12CC[C@H]3[C@@H](CCC4=C(Cl)C(=O)CC[C@@]43C)[C@@H]1CC[C@@H]2O,Potency,[14],inactive
same,Potency,[16],active: 0.003 µM
same,Potency,[15],active: 13.3 µM
same,Potency,[7],"inconclusive [activator, partial curve]"
same,Potency,[8],active: 2.68 µM [inconclusive]
same,Potency,[9],active: 1.5 µM
same,Potency,[17],"inconclusive [rising, full curve, poor fit]"
COc1ccc(OC)c([C@@H](O)[C@H](C)N)c1,"activity change, negative = inhibition",[14],inconclusive: 3.77%
same,Potency,[16],"inconclusive [activator, single point]"
same,Potency,[18],active: 29.8 µM
same,Potency,[19],inactive
O[C@H]1[C@H]2[C@H](O)CCCN2C[C@H]1O,Potency,[2],"inconclusive [rising, partial curve, poor fit]"
same,Potency,[11],inactive
same,"activity change, negative = cytotoxicity",[19],inconclusive: 6.09%
same,Potency,[20],inactive
S=C(S)N1CCNCC1,Potency,[1],inactive
same,Potency,[2],"inconclusive [rising, partial curve, poor fit]"
same,Potency,[21],inactive
